The values that follow come from publication PMC9911399, “Two distinct binding modes provide the RNA-binding protein RbFox with extraordinary sequence specificity”.

To fix the notation:
T1: RBFOX1 RRM RbFoxmut (Fox-RRM*) (Homo sapiens, UniProt Q9NWB1 109-208, R118D;E147R;N151S;E152T)
T1 sequence: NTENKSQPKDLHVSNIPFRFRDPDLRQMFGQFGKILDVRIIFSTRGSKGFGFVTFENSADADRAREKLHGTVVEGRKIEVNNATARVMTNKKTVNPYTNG

B1: AAAUUGA (DNA:RNA)
RNA: GGGAGACCGGAAUUCAGAUUGUCCAAAUUGAUUAAAUCCCGUCGUAGCCACCA
DNA 1: CAATCTGAATTCCGGTCTCCC
DNA 2: TGGTGGCTACGACGGGATT
B2: CAUAAAG (DNA:RNA)
RNA: B1 RNA with A25C, A27U, U28A, U29A, G30A, A31G
DNA 1: CAATCTGAATTCCGGTCTCCC
DNA 2: TGGTGGCTACGACGGGATT
B3: GAGCACU (DNA:RNA)
RNA: B1 RNA with A25G, A27G, U28C, U29A, G30C, A31U
DNA 1: CAATCTGAATTCCGGTCTCCC
DNA 2: TGGTGGCTACGACGGGATT
B4: GCACGGA (DNA:RNA)
RNA: B1 RNA with A25G, A26C, U28C, U29G
DNA 1: CAATCTGAATTCCGGTCTCCC
DNA 2: TGGTGGCTACGACGGGATT
B5: AUCACCG (DNA:RNA)
RNA: B1 RNA with A26U, A27C, U28A, U29C, G30C, A31G
DNA 1: CAATCTGAATTCCGGTCTCCC
DNA 2: TGGTGGCTACGACGGGATT
B6: CCACCUC (DNA:RNA)
RNA: B1 RNA with A25C, A26C, U28C, U29C, G30U, A31C
DNA 1: CAATCTGAATTCCGGTCTCCC
DNA 2: TGGTGGCTACGACGGGATT
B7: GCCGUGA (DNA:RNA)
RNA: B1 RNA with A25G, A26C, A27C, U28G
DNA 1: CAATCTGAATTCCGGTCTCCC
DNA 2: TGGTGGCTACGACGGGATT
B8: GAGCCGG (DNA:RNA)
RNA: B1 RNA with A25G, A27G, U28C, U29C, A31G
DNA 1: CAATCTGAATTCCGGTCTCCC
DNA 2: TGGTGGCTACGACGGGATT
B9: UCACUGG (DNA:RNA)
RNA: B1 RNA with A25U, A26C, U28C, A31G
DNA 1: CAATCTGAATTCCGGTCTCCC
DNA 2: TGGTGGCTACGACGGGATT
B10: AAAAUGA (DNA:RNA)
RNA: B1 RNA with U28A
DNA 1: CAATCTGAATTCCGGTCTCCC
DNA 2: TGGTGGCTACGACGGGATT
B11: UCCAGUC (DNA:RNA)
RNA: GGGAGACCGGAAUUCAGAUUGUCCUCCAGUCUUAAAUCCCGUCGUAGCCACCA
DNA 1: CAATCTGAATTCCGGTCTCCC
DNA 2: TGGTGGCTACGACGGGATT
B12: CCUUUUG (DNA:RNA)
RNA: B1 RNA with A25C, A26C, A27U, G30U, A31G
DNA 1: CAATCTGAATTCCGGTCTCCC
DNA 2: TGGTGGCTACGACGGGATT
B13: GGACACA (DNA:RNA)
RNA: B1 RNA with A25G, A26G, U28C, U29A, G30C
DNA 1: CAATCTGAATTCCGGTCTCCC
DNA 2: TGGTGGCTACGACGGGATT
B14: CAGGCAG (DNA:RNA)
RNA: B1 RNA with A25C, A27G, U28G, U29C, G30A, A31G
DNA 1: CAATCTGAATTCCGGTCTCCC
DNA 2: TGGTGGCTACGACGGGATT
B15: GUUCUUU (DNA:RNA)
RNA: B1 RNA with A25G, A26U, A27U, U28C, G30U, A31U
DNA 1: CAATCTGAATTCCGGTCTCCC
DNA 2: TGGTGGCTACGACGGGATT
B16: GCUGCAG (DNA:RNA)
RNA: B11 RNA with U25G, C27U, A28G, G29C, U30A, C31G
DNA 1: CAATCTGAATTCCGGTCTCCC
DNA 2: TGGTGGCTACGACGGGATT
B17: UCGCUCU (DNA:RNA)
RNA: B11 RNA with C27G, A28C, G29U, U30C, C31U
DNA 1: CAATCTGAATTCCGGTCTCCC
DNA 2: TGGTGGCTACGACGGGATT
B18: CUCGAAG (DNA:RNA)
RNA: B11 RNA with U25C, C26U, A28G, G29A, U30A, C31G
DNA 1: CAATCTGAATTCCGGTCTCCC
DNA 2: TGGTGGCTACGACGGGATT
B19: ACUGGAC (DNA:RNA)
RNA: B11 RNA with U25A, C27U, A28G, U30A
DNA 1: CAATCTGAATTCCGGTCTCCC
DNA 2: TGGTGGCTACGACGGGATT
B20: UUAACCU (DNA:RNA)
RNA: B11 RNA with C26U, C27A, G29C, U30C, C31U
DNA 1: CAATCTGAATTCCGGTCTCCC
DNA 2: TGGTGGCTACGACGGGATT
B21: UCGCCAU (DNA:RNA)
RNA: B11 RNA with C27G, A28C, G29C, U30A, C31U
DNA 1: CAATCTGAATTCCGGTCTCCC
DNA 2: TGGTGGCTACGACGGGATT
B22: CUUCGAC (DNA:RNA)
RNA: B11 RNA with U25C, C26U, C27U, A28C, U30A
DNA 1: CAATCTGAATTCCGGTCTCCC
DNA 2: TGGTGGCTACGACGGGATT
B23: CAUCUAG (DNA:RNA)
RNA: B1 RNA with A25C, A27U, U28C, G30A, A31G
DNA 1: CAATCTGAATTCCGGTCTCCC
DNA 2: TGGTGGCTACGACGGGATT
B24: CUAGCUA (DNA:RNA)
RNA: B1 RNA with A25C, A26U, U28G, U29C, G30U
DNA 1: CAATCTGAATTCCGGTCTCCC
DNA 2: TGGTGGCTACGACGGGATT
B25: AAAGCUC (DNA:RNA)
RNA: B1 RNA with U28G, U29C, G30U, A31C
DNA 1: CAATCTGAATTCCGGTCTCCC
DNA 2: TGGTGGCTACGACGGGATT
B26: AUAACUG (DNA:RNA)
RNA: B1 RNA with A26U, U28A, U29C, G30U, A31G
DNA 1: CAATCTGAATTCCGGTCTCCC
DNA 2: TGGTGGCTACGACGGGATT
B27: GAAGAGU (DNA:RNA)
RNA: B1 RNA with A25G, U28G, U29A, A31U
DNA 1: CAATCTGAATTCCGGTCTCCC
DNA 2: TGGTGGCTACGACGGGATT
B28: ACCGUUA (DNA:RNA)
RNA: B1 RNA with A26C, A27C, U28G, G30U
DNA 1: CAATCTGAATTCCGGTCTCCC
DNA 2: TGGTGGCTACGACGGGATT
B29: GCGCUUC (DNA:RNA)
RNA: B11 RNA with U25G, C27G, A28C, G29U
DNA 1: CAATCTGAATTCCGGTCTCCC
DNA 2: TGGTGGCTACGACGGGATT
B30: UCCACCU (DNA:RNA)
RNA: B11 RNA with G29C, U30C, C31U
DNA 1: CAATCTGAATTCCGGTCTCCC
DNA 2: TGGTGGCTACGACGGGATT
B31: GACCUUA (DNA:RNA)
RNA: B1 RNA with A25G, A27C, U28C, G30U
DNA 1: CAATCTGAATTCCGGTCTCCC
DNA 2: TGGTGGCTACGACGGGATT

Where a chain is given by its changes, count along the chain named. This is one part of the list.

The assay addresses T1, RBFOX1 RRM RbFoxmut (Fox-RRM*). As to the kind of experiment: EMSA; HiTS-Eq, 1 nM pool, 10 min; buffer printed only for the single-RNA assays: 10 mM Tris pH 7.5, 150 mM NaCl, 3.4 mM EDTA, 0.001% NP-40, 30 C. The following applies: tags: His6 N-terminal (pET28a); label: 5' 32P. A digest of the protocol:
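These values rest on relative association constants, computed from read-count changes of each RNA species versus the control reaction and normalised to the cognate motif. Reads came from free RNA recovered by 8% native PAGE after purified RbFox RRM (wild type or mutant) at increasing concentrations was equilibrated for 10 min in 50 µL with 1 nM of a 5′-radiolabelled pool with 7 randomized nucleotides and DNA-annealed flanks.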
In general terms: A gel shift assay detects complexes by their altered migration in electrophoresis.
As to B1, the binding signal was 0.0726 KA relative to UGCAUGU.
As for B2, the figure is 0.0993 KA relative to UGCAUGU; as for B3, 0.0629 KA relative to UGCAUGU; as for B4, 0.107 KA relative to UGCAUGU.
With B5, the binding signal is 0.117 KA relative to UGCAUGU.
As for B6, the figure is 0.0707 KA relative to UGCAUGU; as for B7, 0.102 KA relative to UGCAUGU.
Next, B8: 0.0694 KA relative to UGCAUGU; B9: 0.0879 KA relative to UGCAUGU.
As for B10, the figure is 0.0892 KA relative to UGCAUGU; as for B11, 0.0782 KA relative to UGCAUGU; as for B12, 0.103 KA relative to UGCAUGU.
As to B13, the binding signal was 0.0556 KA relative to UGCAUGU.
Next, B14: 0.0891 KA relative to UGCAUGU; B15: 0.0764 KA relative to UGCAUGU.
With B16, the binding signal is 0.109 KA relative to UGCAUGU.
As for B17, the figure is 0.0658 KA relative to UGCAUGU; as for B18, 0.0859 KA relative to UGCAUGU; as for B19, 0.0904 KA relative to UGCAUGU.
In the case of B20, the binding signal was 0.0822 KA relative to UGCAUGU.
Take B21: the binding signal is 0.098 KA relative to UGCAUGU.
Next, B22: 0.0742 KA relative to UGCAUGU; B23: 0.105 KA relative to UGCAUGU.
Next, B24: 0.0998 KA relative to UGCAUGU.
Turning to B25, the binding signal is 0.0711 KA relative to UGCAUGU.
As for B26, the figure is 0.102 KA relative to UGCAUGU.
As for B27, the figure is 0.0905 KA relative to UGCAUGU; as for B28, 0.0994 KA relative to UGCAUGU; as for B29, 0.0864 KA relative to UGCAUGU.
Next, B30: 0.0768 KA relative to UGCAUGU.
As to B31, the binding signal was 0.0719 KA relative to UGCAUGU.
